{"source": "paper PMC3660009", "about": "(Molecular cell, 2013)", "molecular_target": "T1, GST-tagged 3xMBT (the three MBT repeats of L3MBTL1, amino acids 190-530) (UniProt Q9Y468-1 190-530)", "T1 sequence (looked up)": "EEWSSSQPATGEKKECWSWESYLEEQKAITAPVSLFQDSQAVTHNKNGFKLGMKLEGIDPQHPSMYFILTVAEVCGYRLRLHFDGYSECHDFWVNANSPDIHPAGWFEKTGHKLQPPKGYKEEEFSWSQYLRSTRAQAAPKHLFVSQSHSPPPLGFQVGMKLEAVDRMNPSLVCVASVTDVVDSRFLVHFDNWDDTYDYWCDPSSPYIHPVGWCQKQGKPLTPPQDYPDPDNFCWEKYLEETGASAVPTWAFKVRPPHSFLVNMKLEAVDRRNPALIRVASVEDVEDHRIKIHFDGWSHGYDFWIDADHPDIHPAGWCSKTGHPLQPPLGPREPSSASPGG", "experiment": "pull-down"}
{"binder": "p53K382me1 peptide (p53 […]) (monomethyl-lysine at 382; biotin (position not given)) peptide: not shown", "values": [{"measurement": "binding result", "result": "binds"}]}
{"binder": "p53K382me2 peptide (p53 […]) (dimethyl-lysine at 382; biotin (position not given)) peptide: not shown", "values": [{"measurement": "binding result", "result": "binds"}]}
